Test results taken from the supplement of paper PMC11417369.
± gives the standard deviation of the averaged measurements. This is one part of the list.

System: PfAP2-LT AP2 domain (GST-tagged)
Experiment: gcPBM binding intensity (ln(normalized median fluorescence intensity)); higher = stronger DNA binding
In short: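 An Agilent 4 × 180k array carrying primer-extended double-stranded 36-bp intergenic genomic probes and negative controls received GST-tagged P. falciparum DNA-binding domains expressed in E. coli, about 25 μg on average, for 1 h. The binding buffer contained 1× PBS, 1% milk, 0.2 mg/ml BSA, 0.5% salmon testes DNA and 0.03% Triton X-100. Binding intensity is the top Masliner-normalised natural-log median intensity across replicate spots of either probe orientation, read after Alexa488 anti-GST antibody staining and a 488 nm scan.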

Point of comparison: “TGCGGAAATAAGTGCACACATAGATATATGTATTTT [CACACA_site3689]”, “gcPBM binding intensity (ln)” value 9.26 ± 0.41. Against it:
- ATTTGTATATATAATTGTACGCATATTCTATACGAT [XGTACX_site7367] — within error, 8.94 ± 0.4
- ATACTTTATAAATACTAAAGTGTATTTTGTAATATA [CACACA_negctrl_site1710] — within error, 8.53 ± 0.45
- CATACATACATACATACACACATATATAAATATATG [CACACA_site7028] — within error, 9.34 ± 0.42
- TAAGTGATCGCATAATGTACATATTATTTATTATTT [XGTACX_site3061] — within error, 8.8 ± 0.37
- TACATTTAAAAAAAAACACACATATTTATATTTATA [CACACA_site7236] — within error, 8.48 ± 0.53
- GGAAGGATATAACATACACACACACCCATATATATA [CACACA_site9376] — within error, 9.76 ± 0.33
- TACTTTCACATTAAATGTACGTATAGTTTCATTCTT [XGTACX_site8528] — within error, 8.99 ± 0.46
- ATATTAAAAATATATACACACATATATATAAATATA [CACACA_site2257] — within error, 8.88 ± 0.42
- ATAAATATGGAGCACACACACATAAACATACAGATA [CACACA_site4395] — within error, 9.84 ± 0.38
- TTTGGAGAATTCATAGTGCATTTATTTATTGTTAAT — within error, 8.68 ± 0.37
- TATATTTAAGTACATAAATAAGCCCATTTACATACA [CACACA_negctrl_site1224] — within error, 8.57 ± 0.35
- AAAAATATGAAAGTAACTAAGTTGTTATTGATAACA [CACACA_negctrl_site1608] — within error, 8.63 ± 0.55
- ACGTTAGGCTTATTTGCACACTTGTATTATAATTTT [CACACA_site1317] — within error, 9.11 ± 0.35
- ATATTATCACAAGGTGGTACACAAAAAAAAAAAAAA [XGTACX_site8224] — within error, 8.73 ± 0.54
- ATAAATATGGCAGTACGTACGTATATTCATATTCAT [XGTACX_site8042] — within error, 9.04 ± 0.36
- ATTAAAAAAAAAAAAAAAAAACAAAAAAAAAAAAAA [CACACA_negctrl_site1187] — lower, 8.03 ± 0.49
- TTTTTTTTTTTTTTTTGTACATATACATATATATAT [XGTACX_site1981] — within error, 8.76 ± 0.46
- AGTAGCAAATATTAAGTGCATATTATATAATGTGTA [GTGCAC_site9546] — within error, 8.89 ± 0.48
- GGTTTACCCTATAAATGTACTCATAAATTATATATA [XGTACX_site5771] — within error, 8.4 ± 0.45
- ATACGAAATAGAAACACACATACAATAAATAAATAT [CACACA_site2017] — within error, 9.35 ± 0.4
- TGTTCAGTATGGCACACACACAACAAAATAAAAAAA [CACACA_site4368] — within error, 9.52 ± 0.6
- AAAAAAAACATACATACACACACATAAATATATATA [CACACA_site8864] — within error, 9.72 ± 0.23
- ATGGATTATTTTTAAACATGCAGTAGTGATGAAAAA [TGCATGCA_site346] — within error, 8.61 ± 0.45
- TGATCAAGTAAGAAAAGTACAAAAAAAGTAAAAAAT [XGTACX_site6529] — within error, 8.93 ± 0.58
- GTTCTTTCAAATTATACACACCAAAAAAAAAAAAAA [CACACA_site5660] — within error, 8.57 ± 0.41
- GCGTGTGTACAATGAGTGCATATCTAAAGGGAAGAT — within error, 9.72 ± 0.49
- ATAAGTTTTTATTTTCTGCACTGTCGAATAATAGTT — within error, 8.79 ± 0.49
- GATATGTTTTATTATGTTGATGATAACAGGTAGTTT [CACACA_negctrl_site356] — within error, 8.82 ± 0.4
- TCAATGAAATTAATATGTACATATTTTTATATAGTA [XGTACX_site7955] — within error, 8.52 ± 0.43
- TGGCAAAATAGGCACACACACATATACAGATATATT [CACACA_site4727] — within error, 9.6 ± 0.37
- AAAAAATATATATATATATATATGTAATATTTTTTT [XGTACX_negctrl_site439] — within error, 8.79 ± 0.32
- AAAACTATAAAAATTTTACACACTGTTTTTAAATAA [CACACA_site3667] — within error, 8.54 ± 0.4
- TATATTATAATATTCACACACTAACGTAAATCATTG [CACACA_site7318] — within error, 8.93 ± 0.46
- ATAAAAAAAGATGAACGTACATATATTTTAAAAATC [XGTACX_site5950] — within error, 8.79 ± 0.51
- ACAATATGCAAAAAGTGTACACATTCATTTATATAA [XGTACX_site1061] — within error, 9.03 ± 0.46
- AATATACAAATAAAGGTGCGAGATATTTTTACTTTT — within error, 8.76 ± 0.48
- TATTAAATATATATTACATGCAAAAAAAAAAAACAA [TGCATGCA_site705] — within error, 8.71 ± 0.5
- GTAAATATTTGTTGGGTGCTATCAATTATTTCAAAG — within error, 8.64 ± 0.35
- ATATAAAATATGTATGAGGAATAAAATTAAAAAAAA [XGTACX_negctrl_site173] — within error, 8.81 ± 0.56
- TTTTTTTTGAAGAATACATGCATATTTTCTATATTC [TGCATGCA_site43] — within error, 8.62 ± 0.52
- CGGCACATTCTATATACACACATATAAATATATACA [CACACA_site566] — within error, 9.03 ± 0.39
- TACAATTCGTAATACACACACATATAAATAAATATT [CACACA_site7720] — within error, 9.29 ± 0.28
- ATCTATATCTATAATACACACATCATAAAATATGTA [CACACA_site7230] — within error, 8.87 ± 0.33
- ATATTATATATGTATAGTACATATTATAAGAAAAAT [XGTACX_site3457] — within error, 8.87 ± 0.65
